Results as given in PubChem BioAssay AID1030 (National Center for Advancing Translational Sciences (NCATS), 2008).
Out of some 220,000 compounds screened, about 16,000 (7.3%) were called active. The inconclusive results got no clear call from the source; some entries with a clear call stand among them for comparison. The call rests on the fitted dose curve; in most records, active means well fitted inhibition curve with a large enough effect (not every such curve was filed as active); inconclusive means small, poorly fitted or top-dose-only effect, or another doubt; inactive means no such curve, though single readings can be large or run the other way. Where the call is inconclusive, the potency comes from a doubtful curve fit.

Molecular target: Aldehyde dehydrogenase 1A1 (Homo sapiens) (UniProt P00352)
UniProt P00352, sequence (P00352 whole entry, looked up): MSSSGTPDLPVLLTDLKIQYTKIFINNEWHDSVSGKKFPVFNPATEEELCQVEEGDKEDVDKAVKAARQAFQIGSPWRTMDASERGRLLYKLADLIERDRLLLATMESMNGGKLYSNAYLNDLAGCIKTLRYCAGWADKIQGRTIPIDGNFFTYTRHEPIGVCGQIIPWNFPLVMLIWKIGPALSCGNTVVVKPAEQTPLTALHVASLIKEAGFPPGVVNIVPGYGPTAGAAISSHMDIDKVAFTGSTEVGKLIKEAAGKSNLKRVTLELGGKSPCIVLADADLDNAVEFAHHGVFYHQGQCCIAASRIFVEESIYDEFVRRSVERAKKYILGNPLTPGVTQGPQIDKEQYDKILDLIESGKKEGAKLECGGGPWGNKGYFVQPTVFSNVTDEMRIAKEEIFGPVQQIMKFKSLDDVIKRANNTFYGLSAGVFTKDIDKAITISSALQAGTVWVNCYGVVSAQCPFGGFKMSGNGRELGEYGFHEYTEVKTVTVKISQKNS
Assay: qHTS Assay for Inhibitors of Aldehyde Dehydrogenase 1 (ALDH1A1);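 on activity, negative = inhibition: plate controls were no enzyme wells and a reference inhibitor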
Conditions: Purified ALDH1A1, NADH fluorescence, propionaldehyde substrate; series mostly up to 75.3 µM; activity, negative = inhibition: at the top concentration
Potency means the concentration at half of the fitted maximal effect; tags describe the fitted curve by direction and shape.

Potency, inconclusive:
Cn1c(NC(=O)Cc2ccc(F)cc2)cc(=O)n(C)c1=O 17.8 µM [inhibitor, single point]
O=C(CNC(=S)NC(=O)c1ccc(F)cc1)c1ccccc1 22.4 µM [inhibitor, partial curve]
Cc1cc(C)nc(N2CCCC(CCC(=O)NCc3ccc(F)c(F)c3)C2)n1 (stereo not drawn) 39.8 µM [inhibitor, single point]
N#C/C(C(=O)NCc1ccco1)=C1/SC=C(c2ccccc2)N1c1ccccc1 31.6 µM [inhibitor, partial curve]
CN(C)c1nc(SCCOC(=O)Nc2ccccc2)nc(N(C)C)n1 15.8 µM [inhibitor, partial curve]
O=C(c1ccc(N2C(=O)C3CCCCC3C2=O)cc1)N1CCCCC1 (stereo not drawn) 25.1 µM [inhibitor, partial curve]
CCOc1c2ccc(C(=O)N[C@H](C)C3CCCCC3)cc2nn1CC 31.6 µM [inhibitor, partial curve]
C=CCNC(=O)C1CCN(c2nc(C)cc(-c3ccccc3)n2)CC1 17.8 µM [inhibitor, partial curve]
O=S(=O)(c1ccc2c(c1)OCCO2)N1CCC(n2cnc3cc(F)ccc32)CC1 3.55 µM [inhibitor, full curve]
O=C(COC(=O)[C@@H]1CC(O)CN1S(=O)(=O)c1ccccc1[N+](=O)[O-])c1ccccc1 (stereo partly drawn) 28.2 µM [inhibitor, single point]
CCOc1ccc(NC(=S)N2CCCCCC2)cc1 39.8 µM [inhibitor, single point]
CCC(C(=O)NCc1ccco1)N(Cc1cccs1)C(=O)CNS(=O)(=O)c1ccccc1 (stereo not drawn) 31.6 µM [inhibitor, partial curve]
CCC(c1nnnn1C1CCCC1)N1CCN(C(=O)c2ccco2)CC1 (stereo not drawn) 22.4 µM [inhibitor, partial curve]
CCCOc1ccc(C2C(C(=O)OC)=CN(CCOC)C=C2C(=O)OC)cc1 28.2 µM [inhibitor, partial curve]
COC(=O)c1cccc(N(C(=O)CNC(=O)c2ccco2)C(C(=O)NC2CCCC2)c2ccco2)c1 (stereo not drawn) 39.8 µM [inhibitor, single point]
O=C(NC(=S)N1CCN(c2ccc([N+](=O)[O-])cc2)CC1)c1ccccc1 28.2 µM [inhibitor, single point]
Cc1ccc(C)c(NS(=O)(=O)c2cc(C(=O)NCCSC3CCCCC3)ccc2C)c1 14.1 µM [inhibitor, partial curve]
COc1cc(OC)cc(C(=O)N2CCC(N3CCN(c4ccccc4OC)CC3)CC2)c1 22.4 µM [inhibitor, partial curve]
O=C(Nc1cccc(Cl)c1)c1ccc(F)c(S(=O)(=O)N2CCN(c3ccccn3)CC2)c1 39.8 µM [inhibitor, single point]
COc1ccc(NC(=S)N2CCC(c3nc4ccccc4[nH]3)CC2)c(OC)c1 39.8 µM [inhibitor, single point]
COc1cc(C2=Nc3c(c(C)nn3-c3ccccc3)P(=O)(N3CCOCC3)O2)cc(OC)c1OC (stereo not drawn) 39.8 µM [inhibitor, single point]
CC1(C)CC(CCC(=O)Nc2ccccc2Cl)C(=O)O1 (stereo not drawn) 39.8 µM [inhibitor, single point]
CC(C(=O)Nc1cccc([N+](=O)[O-])c1)[n+]1ccccc1 (stereo not drawn) 35.5 µM [inhibitor, single point]
O=C(Nc1ccccn1)C1(c2cccs2)CCOCC1 22.4 µM [inhibitor, single point]
COc1ccc(/C=C/C(=O)Nc2sc(Cc3ccccc3)c(C)c2C(N)=O)cc1 35.5 µM [inhibitor, single point]
O=c1c2ccccc2nc(COc2ccccc2)n1/N=C/c1ccco1 35.5 µM [inhibitor, single point]
O=C(CN1C(=O)C2C3C=CC(C3)C2C1=O)NCCC1=CCCCC1 (stereo not drawn) 39.8 µM [inhibitor, single point]
Cc1nonc1OC(C)CNc1ccc([N+](=O)[O-])cc1 (stereo not drawn) 17.8 µM [inhibitor, partial curve]
O=C(NC1CCCCCC1)C1CCN(S(=O)(=O)N2CCC3(CC2)OCCO3)CC1 25.1 µM [inhibitor, partial curve]
CCOc1ccc2c(c1)n([O-])c1c([n+]2=O)CCCC1 35.5 µM [inhibitor, single point]
CCn1cc(C(=O)O)c(=O)c2cc(F)c(N3CCN[C@@H](C)C3)c(F)c21 10 µM [inhibitor, partial curve]
O=C(Nc1ccccc1C(=O)NCc1ccc(Cl)cc1)c1ccco1 28.2 µM [inhibitor, single point]
CCOC(=O)c1[nH]c2cc3c(cc2c1NC(=O)CN1CCc2ccccc2C1)OCO3 22.4 µM [inhibitor, partial curve]
O=c1c2ccccc2nc(-c2ccco2)n1Cc1ccccc1 39.8 µM [inhibitor, single point]
COc1cc(S(=O)(=O)NCCN2CCOCC2)ccc1-n1cnnn1 39.8 µM [inhibitor, single point]
Cc1ccc(S(=O)(=O)N2C(=O)C(C)SC2=Nc2ccccc2)cc1 (stereo not drawn) 10 µM [inhibitor, partial curve]
Cc1ccc(-n2c(=O)[nH]c3ncccc3c2=O)cc1 3.16 µM [inhibitor, full curve, poor fit]
O=C(CN(Cc1cccs1)C(=O)CNC(=O)c1ccco1)NC1CCCCC1 35.5 µM [inhibitor, single point]
Nc1nc(CSc2nc3ccccc3[nH]2)cs1 17.8 µM [inhibitor, partial curve]
Cc1ccc(S(=O)(=O)c2ccccc2)cc1S(=O)(=O)N1CCOCC1 25.1 µM [inhibitor, single point]
COC(=O)/C=C/CSC1=N/C(=C/c2ccc(-n3cncn3)cc2)C(=O)N1 35.5 µM [inhibitor, partial curve, poor fit]
O=c1c(CCc2ccccc2)nc2cnc(N3CCOCC3)nc2n1Cc1ccc(F)cc1 31.6 µM [inhibitor, partial curve]

Potency, active:
Cc1ccc(NC(=O)CSc2ncc3ccccn23)cc1C 3.16 µM
CC1(C)OC(=O)C(=NNc2ccc(Br)cc2)C(=O)O1 12.6 µM
O=C(CCl)Nc1ccc2c(c1)OCO2 1.58 µM
Cc1ccc(-c2ccc(/C=C/C(=O)c3ccccc3)o2)cc1 3.16 µM
CC(C)(C)C1CCC2(CC1)C(C#N)=C(SCC(=O)Nc1ccccc1)NC(=O)C2C#N (stereo not drawn) 8.91 µM
CCn1c(C)cc(/C=C2/NC(=O)N(Cc3ccccc3F)C2=O)c1C 1.78 µM
C/C(=N/Nc1ccc(C)cc1)C1(C)N(O)C(C)(C)C(c2ccco2)=[N+]1[O-] (stereo not drawn) 25.1 µM
O=C(c1ccco1)N1CCN(C(c2ccccn2)c2nnnn2C2CCCC2)CC1 (stereo not drawn) 12.6 µM
O=c1cc(O)c2sc(Nc3ccc(F)c(Cl)c3)nc2[nH]1 7.94 µM
Cc1ccc(-n2c(Cc3noc4ccccc34)n[nH]c2=S)cc1 14.1 µM
CCCCN1C(=O)C(O)(CC(=O)c2ccccc2OC)c2ccccc21 (stereo not drawn) 8.91 µM
CCOC(=O)c1c(NC(=O)CC)sc(C(C)=O)c1C 14.1 µM
CCN(CC)S(=O)(=O)c1ccc(NS(=O)(=O)c2ccc(F)cc2)cc1 12.6 µM
Oc1cc(Cc2ccccc2)cnc1CN1CCCCC1 25.1 µM

activity, negative = inhibition, inactive:
O=C1NC(=Nc2ccccc2)S/C1=C/c1cccs1 4.94%
c1ccc2c(c1)CCC[C@@H]2C1=NCCN1 19.4% [at 20.9 µM]
COc1ccc(S(=O)(=O)Cc2ccc(C(=O)N3CCC(C(N)=O)CC3)o2)cc1 4.83%
Cc1cc(C)c(C(=O)COC(=O)c2cccc(S(=O)(=O)NCc3ccccc3)c2)cc1C 7.3%
O=C(COc1ccc(/C=N/NC(=O)c2ccccc2O)cc1)Nc1ccc([N+](=O)[O-])cc1 7.93%
O=[N+]([O-])c1cc(S(=O)(=O)NCCCN2CCOCC2)ccc1Cl -4.6%
CCOC(=O)CNC(=O)O[C@H]1C(=O)c2cc(OC)ccc2O[C@@H]1c1ccc(OC)c(Br)c1 -2.92%
CSc1nc(-c2ccc(Cl)cc2Cl)[nH]c(=O)c1C#N 15%
CC(C)(C)Nc1oc(-c2ccccc2)nc1-c1ccccc1 -1.54%
COc1cccc(-n2nnc(S(=O)(=O)c3ccc(C)cc3)c2N)c1 9.2%
CC12CCC(C(=O)Nc3nc4ccc(Br)cc4s3)(OC1=O)C2(C)C (stereo not drawn) -3.93%
CCOc1ccc(OCCNC2CCCC2)cc1 -10.5%
CCCn1c(C)nc2c(NC(C)CCCN(CC)CC)nc(C)nc21 (stereo not drawn) 3.1%
Cc1ccc(S(=O)(=O)N2CCC(=O)N(CCOC(=O)Nc3cccc(Cl)c3)CC2)cc1 3.03%
OC1(c2ccc(Cl)cc2)CN(c2ccccc2)C2=[N+]1CCS2 (stereo not drawn) -10.1%
Cc1cc(OCC(=O)NCCCN(C)C)cc(C)c1Br 1.58%
Clc1ccc(Nc2ncnc3c2cnn3-c2ccccc2)cc1 -15.4%
